Reference: PMC6919601, “Identification of Plasmodium dipeptidyl aminopeptidase allosteric inhibitors by high throughput screening” (PLoS ONE, 2019)
Where “and” joins values, the source holds several entries; their conditions need not be identical. Identical values can stand only once. Hit rate of the full screen: of about 110,000 compounds, about 230 (0.21%) showed an effect of 50% or more. The list shows a part of the results.

What follows are compounds tested against DPAP1 (Plasmodium falciparum, UniProt Q8IIJ9) (assay: primary screen, percent inhibition; read by cleavage of a fluorogenic dipeptide substrate; higher = more effect of the substance).
Set-up: species or system P. falciparum D10 trophozoite lysates; single well
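Also: 30 min substrate incubation versus DMSO and 10 µM JCP410 controls.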

Sequence of DPAP1 (Q8IIJ9 whole entry, looked up): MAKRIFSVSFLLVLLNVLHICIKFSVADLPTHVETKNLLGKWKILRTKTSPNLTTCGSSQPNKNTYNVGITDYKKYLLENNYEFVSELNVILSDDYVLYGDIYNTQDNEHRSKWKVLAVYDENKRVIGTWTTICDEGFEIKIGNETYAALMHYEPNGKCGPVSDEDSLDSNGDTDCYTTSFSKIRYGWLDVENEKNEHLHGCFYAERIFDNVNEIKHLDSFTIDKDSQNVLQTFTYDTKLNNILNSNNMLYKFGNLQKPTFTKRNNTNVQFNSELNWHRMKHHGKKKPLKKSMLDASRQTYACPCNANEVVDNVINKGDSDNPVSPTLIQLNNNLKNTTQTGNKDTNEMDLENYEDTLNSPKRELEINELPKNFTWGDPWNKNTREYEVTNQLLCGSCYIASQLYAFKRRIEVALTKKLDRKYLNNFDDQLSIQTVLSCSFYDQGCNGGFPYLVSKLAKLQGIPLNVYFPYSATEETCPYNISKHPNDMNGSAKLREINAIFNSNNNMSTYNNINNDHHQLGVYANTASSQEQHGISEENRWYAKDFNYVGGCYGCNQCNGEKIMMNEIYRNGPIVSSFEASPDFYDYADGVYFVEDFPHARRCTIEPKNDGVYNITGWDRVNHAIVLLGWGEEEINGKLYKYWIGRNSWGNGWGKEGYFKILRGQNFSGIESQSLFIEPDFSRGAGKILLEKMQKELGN

Row | Compound | % Inhibition @ 10 uM
1 | CN(Cc1ccccc1)C(=O)c1cc2ccc3cccnc3c2[nH]1 | 6.52%
2 | COc1ccccc1CN1CCN(Cc2ccccc2Br)CC1 | -2.84%
3 | Cc1ccc(C)c(-c2csc(-c3cccnc3)n2)c1 | -9.13%
4 | Cc1ccccc1CNC(=O)CN(c1ccc(Cl)c(Cl)c1)S(C)(=O)=O | -2.28%
5 | CC1(C)CC2=Nc3ccccc3NC(c3ccc[nH]3)C2=C(O)C1 (stereo not shown) | -0.736%
6 | OCC1CCCN(Cc2ccccc2Cl)C1 (stereo not shown) | 3.83%
7 | Cc1ccc(C(=O)N/C(=C/c2cccnc2)C(=O)N2CCCC2)cc1 | -5.79%
8 | CCCCc1ccc(NC(=O)c2ccccc2C)cc1 | -8.2%
9 | CC1CCC(N2CCN(C=O)CC2)CC1 (stereo not shown) | -5.11%
10 | O=c1c2ccccc2ncn1C1c2ccccc2-c2ccccc21 | 3.17%
11 | CC(=O)NS(=O)(=O)c1ccc(NC(=O)c2cc(-c3cccs3)nc3ccccc23)cc1 | -3.19%
12 | CC1(C)CC(=O)c2c(nc3ccc([N+](=O)[O-])cc3c2N)C1 | -1.42%
13 | Cc1cc(NC(=O)Cn2cnc3c(cnn3C)c2=O)[nH]n1 | -6.08%
14 | CCOc1ccc(C(=O)Nc2ccccc2NC(=O)c2ccc(OCC)cc2)cc1 | -1.44%
15 | CC(=O)N1N=C(c2ccco2)CC1c1ccc(Br)cc1 (stereo not shown) | -7.28%
16 | N#CC1=C(SCC(N)=O)NC(=O)C(C#N)C12CCCCC2 (stereo not shown) | 2.55%
17 | COc1ccc(CCNC(=O)c2nc(SC)ncc2Cl)cc1OC | 2.19%
18 | CCOc1cccc(C(=O)N[C@@H](CC(C)C)C(=O)NCC#N)c1 | 1.71%
19 | CCOC(=O)N1CCC(NCC(C)(C)CN(C)C)CC1 | -2.44%
20 | Cc1ccc(/C=N/n2c(C)nnc2C)o1 | 4.67%
21 | C=CCn1c(SCC(=O)NCCc2ccc(OCC)c(OCC)c2)nnc1-c1cccs1 | 2.7%
22 | CC(Sc1nc(N2CCOCC2)nc(N2CCOCC2)n1)C(=O)Nc1ccccc1 (stereo not shown) | 0.993%

Row | Compound | % Inhibition @ 10 uM
23 | CCC(=O)Nc1ccc(-c2cn3ccsc3n2)cc1 | 4.67%
24 | COCCN1C(=O)/C(=C/c2c[nH]c3ccccc23)S/C1=N\c1ccccc1 | -7.1%
25 | O=C(N[C@@H](CCc1ccccc1)C(=O)c1nc2ccccc2o1)OCC1CCCCC1 | -1.83%
26 | COc1ccc(NC(=O)CN(c2cc(Cl)ccc2OC)S(C)(=O)=O)cc1OC | -1.22%
27 | COc1ccc2nc(C)cc(Nc3ccc(N(C)C)cc3)c2c1 | -2.76%
28 | CCc1ccc(OCC(=O)Nc2ccc3oc(-c4cccnc4)nc3c2)cc1 | 2.64%
29 | CC1(C)[C@H]2CC=C(CN3CCN(c4ccccc4F)CC3)[C@@H]1C2 | 2.7%
30 | COc1ccc2c(c1)CC(C1(O)C(=O)N(C)c3ccccc31)C2=O (stereo not shown) | -5.46%
31 | O=C(O)c1ccc(/C=C2/NC(=O)N(c3ccc(Cl)cc3)C2=O)cc1 | -18.6%
32 | COc1ccc(-c2cn3nc(N4CCCC(C(=O)O)C4)sc3n2)cc1 (stereo not shown) | -3.34%
33 | OC1=C2C(=Nc3ncnn3C2c2ccccc2OC(F)F)CCC1 (stereo not shown) | -3.37%
34 | CCNC(=O)/C(=C\c1ccccc1)NC(=O)c1cccc(Br)c1 | -2.68%
35 | CCOC(=O)C1CCN(Cc2ccc(C(C)C)cc2)CC1 | -5.41%
36 | COc1ccc(CCNC(=O)CSc2nncn3c2cc2oc(C)cc23)cc1OC | -9.85%
37 | O=C(O)c1cccc([N+](=O)[O-])c1C(=O)Nc1cccc2ccccc12 | -3.38%
38 | Cn1c(=O)c2c(nc(NCCCn3ccnc3)n2Cc2cccc3ccccc23)n(C)c1=O | 6.7%
39 | CN(C)C(=O)N1CCCC(C(=O)NCCc2ccccc2)C1 (stereo not shown) | 3.66%
40 | Cc1cc(C)c(C)c(S(=O)(=O)Nc2ccc(C(=O)N3CC(C)OC(C)C3)cc2)c1C (stereo not shown) | 0.709%
41 | Fc1ccccc1N1CCN(Cc2ccncc2)CC1 | -3.42%
42 | COc1ccc(-c2ncc3ccccc3n2)cc1 | -0.622%
43 | COc1cc(OC)c(/C=C/[N+](=O)[O-])c([N+](=O)[O-])c1 | -3.58%
44 | O=C(NCCCc1ccccc1)c1cccs1 | -5.34%

Row | Compound | % Inhibition @ 10 uM
45 | COc1cc(NC(=O)CCC2CCCCC2)cc(OC)c1OC | -2.58%
46 | Cc1ccc(S(=O)(=O)N(CC(=O)N2CCc3ccccc3C2)c2ccccc2)cc1 | -9.87%
47 | COc1ccc(/C=C2/C(=O)N(c3ccccc3)C(=S)N(c3ccccc3OC)C2=O)c(OC)c1 | -4.21%
48 | CCN(CC)S(=O)(=O)c1cc(C(=O)Nc2cccc(C)c2)ccc1F | 13.2%
49 | COc1ccc(/C(O)=C/C(C)=N/c2cccc(C(F)(F)F)c2)cc1 | -0.105%
50 | COc1ccc(Cl)cc1-n1c(C)cc(/C=C2\C(=N)N3N=C(S(C)(=O)=O)SC3=NC2=O)c1C | -1.54%
51 | Cn1c(=O)[nH]c2nnc(-c3cccnc3)nc2c1=O | 9.1%
52 | COc1ccc(-c2cc(C)no2)cc1S(=O)(=O)N(C)CCCc1ccco1 | -0.166%
53 | Cn1c2ccccc2c2cc(C3NC(C(=O)O)CS3)ccc21 (stereo not shown) | -1.06% and 0.907%
54 | CC(=O)c1ccc(C(=O)N(CCCN(C)C)c2nc3c(C)cccc3s2)cc1 | 0.745%
55 | CCCn1c(C(O)c2ccc(C)cc2)nc2ccccc21 (stereo not shown) | 10.6%
56 | Cc1s/c(=N\C(=O)c2ccco2)n(C)c1-c1ccc(F)cc1 | 0.145%
57 | CC(=O)c1cccc(NC(=O)CN(C)S(=O)(=O)c2cc(Cl)ccc2Cl)c1 | -2.8%
58 | O=C(c1cccc(F)c1)N1CCN(c2ccccc2F)CC1 | -6.68%
59 | Fc1ccc(N2CCN(Cc3c(F)cccc3F)CC2)cc1 | 4.68%
60 | O=C(O)C1CCCc2c1[nH]c1ccc(Cl)cc21 (stereo not shown) | -3.5%
61 | Cn1c2c(c(=O)n(C)c1=O)CN(CCN1CCOCC1)CN2 | -1.06%
62 | Cc1ccc(C2C(=O)N(C3CCCCC3)CC(=O)N2Cc2ccccc2Cl)cc1 (stereo not shown) | -0.406%
63 | COc1ccc(N(C(C)C(=O)Nc2cc(C)ccc2OC)S(C)(=O)=O)cc1 (stereo not shown) | -11.1%
64 | CCN(CC)C(=O)CSc1nc2nnc(C)c-2c(N)n1-c1cc(Cl)ccc1C | 10.1%
